Screen size: about 150,000 compounds; about 540 (0.36%) showed an effect of 50% or more. This is one part of the list.
tested on: Plasmodium falciparum; assay: Primary screen in NF54 nanoGlo assay, in single point, at 2uM, 72h; a lower Z score goes with more inhibition; type: functional, Erythrocyte; conditions: timepoint 72 hour

| Compound | % Inhibition | Z score |
| --- | --- | --- |
| COc1ccc(CCc2n[nH]c(NC(=O)c3cccnc3)n2)cc1OC | 28% | -3.51 |
| C#CC[C@H]1CCCN(c2nnnn2CCN2C(=O)CNC2=O)C1 | -13% | 1.59 |
| O=C(NCc1cccnc1)[C@]1(F)CCCN(S(=O)(=O)c2ccccc2F)C1 | -31% | 2.72 |
| O=C(NCC(=O)N1CCCC1)NCc1ccc(Br)cc1 | 4% | -0.59 |
| O=C(CCC(=O)c1ccc2c(c1)OCCCO2)Nc1ncccc1O | -12% | 1.89 |
| CN(CCOC(=O)c1cc[nH]n1)c1ccccc1 | -9% | 1.04 |
| C[C@H]1CCOCCN1C(=O)Nc1nc(C2CCC2)cs1 | -5% | 0.47 |
| O=C(NCCn1c(=O)[nH]c2ccsc2c1=O)c1ccccc1Cl | -10% | 1.7 |
| CN(c1ccccc1C(=O)O)S(=O)(=O)c1cccc2nsnc12 | -4% | 0.56 |
| Cc1nc(C(=O)N[C@@H](C)Cn2cncn2)cs1 | -10% | 2.07 |
| COc1ccc(NC(=O)C2(NC(=O)[C@H](C)Oc3ccc(F)c(F)c3)CCCC2)cc1OC | -9% | 1.46 |
| CC(=O)Nc1ccc(CN[C@H]2C[C@H](c3ccc(Cl)c(Cl)c3)C2)cc1 | -3% | 0.4 |
| Cc1n[nH]c([C@@H]2CN(C(=O)c3cccc4[nH]ccc34)C[C@H]2C(N)=O)n1 | -7% | 1.16 |
| CN(c1cccc(NC(=O)Cc2ccc(Cl)cc2F)c1)S(C)(=O)=O | -23% | 2.01 |
| O=C(C1CCN(C(=O)[C@H]2CCC(=O)N(C3CCCCCC3)C2)CC1)N1CCCC1 | -3% | 0.56 |
| CCN(c1ccc(C(=O)N[C@H](C)C(=O)NCCN2CCCCC2)cc1)C(C)C | -4% | 0.74 |
| CCCCn1ccnc1C(=O)c1ccc(S(=O)(=O)N2CCOCC2)cc1 | -7% | 1.11 |
| CC[C@H]1CC[C@H](C(=O)Nc2cnn(CCOC)c2)CC1 | 2% | -0.22 |
| Cc1cc(C)nc(NC(=O)c2cccc(C(=O)Nc3cc(C)cc(C)n3)n2)c1 | -4% | 0.42 |
| CN(Cc1noc(C2CC2)n1)[C@@H](/C=C/c1ccccc1)C(=O)O | 2% | -0.42 |
| CCCOc1c(CN(C)[C@@H]2CCC[C@H]2O)cccc1OCC | -5% | 0.79 |

| Compound | % Inhibition | Z score |
| --- | --- | --- |
| Cc1ccc(-c2nc(-c3ccc4c(c3)ncn4CCN3CCOCC3)no2)c(C)c1 | -3% | 0.49 |
| O=C1CN2C(=O)[C@]3(CCN(CC4CC4)[C@H]3c3cccc(c3)OCCCN1)c1ccccc12 | -24% | 3.01 |
| O=C(c1cnccn1)N1CC[C@H](c2nc3ccccc3o2)C1 | 7% | -0.91 |
| CC(C)(C)OC(=O)N1CC2CCC(NC(=O)CC#N)CC2C1 (stereo not drawn) | -21% | 2.79 |
| CN(CC1CCOCC1)C(=O)CC1CCCCC1 | -1% | 0.22 |
| O=C(O)c1csc(S(=O)(=O)Nc2ccc(-n3cccn3)c(Cl)c2)c1 | -1% | 0.19 |
| CC(=O)Nc1ccc(C2OC(=O)N(Cc3cccc(F)c3)C2C(=O)NCC2CCCO2)cc1 (stereo not drawn) | -9% | 1.12 |
| Cc1ccc(S(=O)(=O)NCC(C)C)cc1C | 1% | -0.18 |
| O=C(O)[C@H]1CC(=O)N(c2ccc3nc(-c4cccc(F)c4)oc3c2)C1 | 33% | -4.8 |
| CCc1ccc(N2C[C@@H](c3nc(COc4cccc(F)c4)no3)CC2=O)cc1 | -8% | 1.15 |
| COc1cccc2c1Oc1c(c(=O)n(-c3ccccc3)n1CC(=O)Nc1ccc(C)cc1Cl)C2 | 2% | -0.34 |
| CCc1noc(CCNC(=O)Nc2cc(C)nn2C2CCCCC2)n1 | -3% | 0.5 |
| O=C(Nc1cc(S(=O)(=O)N2CCOCC2)ccc1Oc1ccc(F)cc1)c1ccnc2ncnn12 | -18% | 1.56 |
| c1ccc(-n2nnc3c2CCNC3)cc1 | -12% | 1.33 |
| CCn1ccc2ccc(CCC(=O)NC(C)(C)C)cc21 | 2% | -0.21 |
| NS(=O)(=O)c1ccc(CCN[C@H]2CC(=O)N(CCc3ccccc3)C2=O)cc1 | -9% | 1.57 |
| CC1(C)NC(=O)N(CCN2CCCCCC2)C1=O | 4% | -0.75 |
| Cc1nn(C)c2nc(N3CCN(CCOc4ccccc4)CC3)sc12 | -13% | 1.27 |
| O=C(NCc1ccc(N2CCOCC2)cc1)c1cc[nH]c1[C@H]1CCCNC1 | -16% | 1.82 |
| CCn1cc(S(=O)(=O)N[C@H]2CCOC[C@@H]2OCC2CC2)cn1 | -4% | 0.75 |
| C#CCNC(=O)C[C@H]1CCCN1C(=O)OC(C)(C)C | -6% | 1.24 |

| Compound | % Inhibition | Z score |
| --- | --- | --- |
| COc1ccc([C@@]2(C)NC(=O)N(CC(=O)N(c3ccccc3)C(C)C)C2=O)cc1OC | -11% | 1.16 |
| Cc1ncc(C(=O)Nc2ccc(-n3nn[nH]c3=O)cc2)s1 | 3% | -0.42 |
| Cc1cc(OCC(=O)NC(N)=O)ccc1N | 29% | -3.23 |
| CCc1nc(C)c(CC(=O)N2CCN(c3ccccc3C)C[C@@H]2C)c(=O)[nH]1 | -10% | 0.9 |
| Cc1oc(-c2ccno2)cc1S(=O)(=O)N1CCCc2ccccc21 | -6% | 0.7 |
| CC(=O)Nc1nc(CN[C@@H](C2CCCC2)C(F)(F)F)cs1 | -13% | 1.91 |
| O=C(O[C@@H](c1ccccc1)c1cccnc1)c1ccnc(C2CC2)n1 | -9% | 1.22 |
| Cc1cccc(NC(=O)N2C3CCC2CC(Oc2cccnc2)C3)c1 (stereo not drawn) | 11% | -1.67 |
| CN1C(=O)CN(Cc2cc3c(cc2Cl)OCO3)C(=O)c2ccccc21 | -10% | 1.35 |
| O=C(O)c1cc(C2CC2)nc2c1c(C1CC1)nn2-c1ccccc1F | -9% | 1.28 |
| CC1CN(C(C)c2nnc(-c3ccc4ccccc4c3)o2)CC1O (stereo not drawn) | -3% | 0.54 |
| COCc1cc(C(=O)N2CC(C)(C)c3c(Cl)cccc32)no1 | -3% | 0.48 |
| Cc1ccc(-n2cc(-c3ccccc3)nc2NC(=O)CN(Cc2ccco2)C(=O)c2ccccc2Cl)cc1 | 5% | -0.6 |
| COc1ccc(-c2nnsc2C(=O)NCc2ccc(Cl)cc2)cc1 | -6% | 0.92 |
| NC(=O)NCCC[C@@H]1NC(=O)[C@H](Cc2ccccc2)NC1=O | -12% | 1.78 |
| Cc1noc([C@@H]2CC(F)(F)CN2C(=O)c2cnco2)n1 | -3% | 0.48 |
| CC(C)(C)OC(=O)NC1(CN)CCCCC1 | -14% | 1.14 |
| CC(O)C(=O)NC(c1cccc(F)c1F)C(F)(F)F (stereo not drawn) | -16% | 2.5 |
| c1cnn(-c2cncc(N3CCCCCCC3)n2)c1 | -18% | 1.79 |
| Cc1noc(C)c1CNC(=O)N1CC(C)OC(c2ccsc2)C1 (stereo not drawn) | 0% | 0.06 |
| COc1cccc(N2CCN(C(=O)COc3cccnc3)CC2(C)C)c1 | -6% | 1 |

| Compound | % Inhibition | Z score |
| --- | --- | --- |
| CCn1c(Cn2nc3ccccn3c2=O)nc2cc(F)ccc21 | -3% | 0.35 |
| CC1COCC(C)N1C(=O)c1c[nH]c2ncccc12 (stereo not drawn) | 1% | -0.18 |
| CCC(=O)N1CCC(NCc2nccn2C)C(CC)C1 (stereo not drawn) | -15% | 2.17 |
| COCc1nc(C(=O)NC2=NO[C@@H](C)C2)c(-c2ccccc2)s1 | -6% | 0.54 |
| CCc1nccn1C1CCCN(S(=O)(=O)N(C)CC(C)C#N)C1 (stereo not drawn) | -10% | 1.56 |
| Clc1ccc(-c2ccc(-c3nc4ccccc4s3)o2)cc1Cl | 33% | -3.75 |
| COc1ccc(C(=O)N2CCCCCNC(=O)[C@H]3C[C@H](C(=O)N4CCc5ccccc5C4)C[C@H]32)cn1 | -10% | 1.75 |
| O=C(Cn1cc(N[C@H]2CCCc3sccc32)cn1)NCCO | -3% | 0.37 |
| CCc1cccc(OC[C@@H](O)Cn2c(-n3nc(C)cc3C)nc3c2c(=O)[nH]c(=O)n3C)c1 | 3% | -0.37 |
| CC(C)(C)c1ccc(Cn2c(C(=O)NCc3ccco3)cc3cc(NC(=O)c4ccco4)ccc32)cc1 | -5% | 0.52 |
| c1cc([C@@H](NCc2nc(CC3CC3)no2)C2CC2)ccn1 | 0% | 0.07 |
| COc1ccc(C(=O)N2CCN(c3nnc4ccc(Cl)cn34)CC2)cc1 | -10% | 1.87 |
| CC1CCCC(OC(C)C(=O)N(C)C)C1 (stereo not drawn) | -1% | 0.07 |
| Cc1nc(C)c(C)c(N(C)Cc2cccc(CN(C)C)c2)n1 | 0% | -0.03 |
| Cn1c(-c2cccc(Cl)c2)cn2cc(-c3cccc(Br)c3)nc12 | -8% | 0.95 |
| C[C@H]1CN(S(C)(=O)=O)C(C)(C)CO1 | -6% | 0.8 |
| Cc1ccc(C)c(CNC(=O)[C@H]2CCc3nc(N4CCCC4)ncc3C2)c1 | -4% | 0.73 |
| C[C@]1(CO)C2CC[C@@H](O)[C@@H](CC(=O)N3CCCC3)[C@]2(C)CC[C@H]1OC(=O)Nc1ccccc1 (stereo partly drawn) | -8% | 1.18 |
| Cn1nccc1CNc1ncn(CC(=O)N2CCCCCC2)n1 | -3% | 0.36 |
| Cc1cnc(OC2CCN(Cc3cn4cccc(F)c4n3)CC2)nc1 | -14% | 2.23 |
| O=C(NCCc1ccc(Cl)s1)C1CCC1 | 5% | -0.72 |

Reference: ChEMBL document CHEMBL4888484, “Replenishing the malaria drug discovery pipeline: Screening and hit evaluation of the MMV Hit Generation Library 1 (HGL1) against asexual blood stage Plasmodium falciparum ,using a nano luciferase reporter read-out” (2022)
